# Reference: ChEMBL document CHEMBL4888484, “Replenishing the malaria drug discovery pipeline: Screening and hit evaluation of the MMV Hit Generation Library 1 (HGL1) against asexual blood stage Plasmodium falciparum ,using a nano luciferase reporter read-out” (2022)
# Out of some 150,000 compounds screened, about 540 (0.36%) showed an effect of 50% or more. Some of the results follow.
# Test system: Plasmodium falciparum
# Assay: Primary screen in NF54 nanoGlo assay, in single point, at 2uM, 72h; a lower Z score goes with more inhibition
# Format: functional, Erythrocyte
# Conditions: timepoint 72 hour
SMILES,% Inhibition [%],Z score
CC(C)(C)N(Cc1ccccn1)C(=O)[C@@H]1CC=CCC1,5,-0.5
COc1cccc([C@H]2CC(=O)Nc3c2cnn3C)c1OCc1ccccc1F,28,-3.14
C[C@@](CO)(NC(=O)Nc1ccccn1)c1cccc(C(F)(F)F)c1,-4,0.6
CC(C)O[C@@H]1CCN(c2nnc(-c3ncccn3)n2C)C1,3,-0.56
CC1CC(C)CN(S(=O)(=O)c2ccc(NC(=O)C3CCC3)cc2)C1 (stereo unspecified),-11,1.7
Cc1onc(C(=O)N(CCO)Cc2cccs2)c1CO,-17,2.49
Cc1nnc(CN2C(=O)N[C@@]3(CCCCc4ccccc43)C2=O)s1,-6,0.82
CCCn1ccnc1CN1C[C@@H]2CC[C@H]1CN(S(=O)(=O)N(C)C)C2,-8,1.32
CC(C)(C)C(=O)N1CCc2[nH]nc(-c3ccc(F)c(F)c3)c2C1,-5,0.81
COc1ccc(-c2nc(-c3ccc(OCc4cccc(F)c4)c(OC)c3)no2)c(OC)c1,-25,2.44
O=C(Cc1ccc(CO)cc1)N1CCC([C@@H](O)CCc2ccccc2)CC1,5,-0.7
C=CCn1cc(CN(Cc2c(C)nn(C)c2C)C(C)C)c(C)n1,-13,1.85
Cc1cnccc1CN(C)C(=O)c1ccc2cccnc2n1,-10,1.07
Cc1cccc2nc(C(=O)N3CCS(=O)(=O)CC3)c(F)n12,6,-0.84
COC(=O)c1cc(OC)ccc1-c1cccc(C(=O)N2CCNC[C@@H]2C)c1,-17,1.67
Cc1csc(NC(=O)c2cnc(C(C)C)s2)n1,4,-0.54
O=C(c1ccc2c(c1)COCO2)N1CCC[C@H](N2CCCCCC2)C1,-14,1.36
CC(C)CN(Cc1cc(NC(=O)NC(C)C)ccc1N(C)C)C(=O)CC(C)(C)C,-9,1.21
O=C(CC[C@H]1CCOC1)N1Cc2cnn(-c3ccccc3)c2C1,-10,1.09
COc1ccc(CN2CC(=O)N(c3ccc(OC)c(Cl)c3)C3CS(=O)(=O)CC32)cc1 (stereo unspecified),-5,0.67
Cc1ccc(C2CC2C(=O)N2CCC3(CC2)NC(=O)NC3=O)cc1C (stereo unspecified),4,-0.62

SMILES,% Inhibition [%],Z score
COCc1nnc(-c2cc3ccccc3cc2O)o1,12,-1.43
O=C(O)[C@H]1CN(C(=O)c2ccc3c(c2)OCO3)C[C@@H]1c1ccc(F)cc1,-3,0.43
COc1c(C)cc([C@H]2CCc3nc(C(=O)Nc4ccc(C)cc4)cn3C2)cc1C,0,-0.02
O=C(c1cc2ccccc2c(CN2CCCc3cc(Cl)ccc32)c1O)N1CCOCC1,-5,0.94
N#Cc1c(NC(=O)C2CCN(S(=O)(=O)c3ccc(Cl)cc3)CC2)sc2c1CCC2,4,-0.59
COC(=O)c1ccc(O)c(NC(=O)C(F)(F)F)c1,3,-0.44
COCCN(CC1CN(CC(O)Cc2ccccc2)CCO1)C(=O)c1ccccc1 (stereo unspecified),-5,0.45
CC(C)=Cc1c(-c2ccccc2)ncn1C[C@H]1CNCCO1,-13,1.23
CN(Cc1ccc(F)cc1C(F)(F)F)Cc1ncnn1C,0,-0.04
COC(C)c1nc(CN(C)C(=O)N2C(C)CCCC2C)cs1 (stereo unspecified),2,-0.25
Cc1ccncc1C(=O)NC[C@H]1CCCCS1(=O)=O,-7,1.07
O=C1NC2(CCOCC2)Nc2ccccc21,-10,1.53
CCc1cnccc1C(=O)OCc1ccc2[nH]nnc2c1,9,-1.08
COCCNC(=O)N(C)Cc1nccn1CC(F)(F)F,-10,0.93
Cc1cc(C(=O)N2CCN(Cc3cc4ccccc4o3)CC2)ncn1,-15,1.37
CCc1cc(C(=O)Nc2ccc(Cl)cc2F)nc2ccnn12,6,-0.98
O=S(=O)(Cc1csc(N2CCOCC2)n1)c1ccccc1,-7,1.29
CO[C@H]1CC[C@@]2(OC)CCN(Cc3cnc(-c4cccc(C)c4)nc3)[C@H]2C1,2,-0.29
CCCc1ccc(CN2CCn3nc(C(=O)N4CCN(C)CC4)cc3C2)o1,-6,0.85
Cc1c(-c2nc3c([nH]2)c(-c2cccnc2)nn3C)cnn1-c1ccccc1,12,-1.61
O=C(Cc1csc(N2CCCNC2=O)n1)Oc1ccc(Cl)cc1Cl,-1,0.17

SMILES,% Inhibition [%],Z score
O=C(NCc1ccccc1)c1ccccc1N1C(=O)[C@@H]2Cc3c([nH]c4ccccc34)C(c3cccc(Cl)c3)N2C1=O (stereo partly specified),10,-0.93
CC(C)N(C)S(=O)(=O)c1ccccc1,1,-0.12
C=CCN1C(=O)C(C(=O)N(Cc2ccccc2)Cc2ccccc2)[C@H]2C[C@@]1(C)Oc1ccccc12 (stereo partly specified),2,-0.3
FC(F)(F)c1nnc2ccc(N(CC3CCCCC3)C3CC3)nn12,1,-0.12
Cc1cccc(NC(=O)c2ccc(=O)n(CCC(=O)N3CCOCC3)n2)c1,-13,1.76
Cc1cc(C)nc(NCCS(=O)(=O)CC(C)C)n1,-6,0.96
CC(C)c1nc(CNS(=O)(=O)c2cccs2)n(-c2ccccn2)n1,-1,0.1
Cc1nn(C)c(Cl)c1CN1CCc2[nH]cnc2[C@H]1c1cccc(O)c1,-13,2.41
COC[C@@H](O)CN(Cc1ccco1)Cc1c(C)nn(-c2ccccc2)c1Oc1ccc(C)cc1,17,-1.88
CN(C(=O)CCOC1CCOCC1)c1cc(Cl)cc(Cl)c1,-18,3.51
COCCc1noc([C@@H]2CCCN2Cc2ccc3cc(NC(C)=O)ccc3n2)n1,-11,2.13
CCCn1nccc1-c1ccc(NC2CC2)nn1,-18,2.3
Cc1ccc(Nc2ccc3nc(-c4ccc(S(=O)(=O)Nc5ccc(C)cc5)cc4)nc4c3c2C(=O)c2ccccc2-4)cc1,-4,0.42
O=C(Cc1ccc(S(=O)(=O)Nc2ccccc2)s1)N1CCCC1,-8,1.6
COc1ccc(-c2n[nH]c(C)c2CC(=O)NCC2(c3ccc(OC)cc3)CCOCC2)cc1,-3,0.38
CCN(CC)CCNC(=O)c1c(N2CCCC2=O)c2cc(F)ccc2n1CC,-1,0.13
CC[C@H](Nc1nc(C2CCCC2)nc2c1CNC2)c1cc(C)ccn1,-19,2.41
CO[C@@H](C)C(=O)N1CCC2(CCC(=O)N(CCc3ccncc3)C2)CC1,3,-0.28
COCc1nc(-c2ccc(N3CCCC3=O)cc2)cs1,-7,0.86
CO[C@H]1CCN(CC(=O)NCCc2ccc(Cl)cc2)C1,-11,1.82
Cc1nc(-c2ccc(C(=O)NCC3CCOCC3)cc2)c2ccsc2n1,-6,0.58

SMILES,% Inhibition [%],Z score
CCc1ccc(NC(=O)Cn2c(=O)n(Cc3ccccc3F)c(=O)c3sccc32)cc1,7,-1.02
O=C(COc1ccc(F)cc1)NC1CC2CCC1C2 (stereo unspecified),-17,2.5
O=C(NCCCc1ccccc1)N1CC(Oc2nccs2)C1,-17,2.13
Cc1nc2cc(C(=O)N3CCc4ccccc43)ccc2n1-c1ccc(Br)cc1,3,-0.37
CC(C)c1ccc(OC[C@H]2c3ccsc3CCN2C(=O)CN(C(=O)Nc2cccc(Cl)c2)C(C)C)cc1,-11,1.02
Cc1ccc(N2CCN(Cc3ccc(C(=O)NCc4ccccc4F)cc3)CC2)cc1,-14,1.29
O=C(NC1CC1)[C@@H]1CN(Cc2ccc3cccc(Cl)c3n2)CCN1,-28,2.84
Cc1cc(C)c(NC(=O)CN(C)C(=O)NCCCOC(C)C)c(C)c1,-1,0.11
Cc1[nH]c2c(-c3nc([C@H]4CCOC4)no3)cccc2c1C,-12,1.59
COc1ccccc1NC(=O)[C@@H](C)C1CCN(C(=O)Nc2ccc(Cl)cc2)CC1,-10,1.33
COc1ccc(C2=C[C@@H](c3ccccc3)n3nnnc3N2)cc1,9,-1.16
COCCN(C)Cc1ccc(CC2CCN(Cc3cnn(C)c3C)CC2)cc1,-11,2.06
Cc1noc2ncnc(N3CCN(C)C[C@H]3c3ccccc3)c12,-12,1.21
O=C1C[C@H](N2CCN(S(=O)(=O)c3ccc(F)cc3)CC2)C(=O)N1Cc1ccc(Cl)cc1,-1,0.09
CCOc1ccccc1C(=O)Nc1c(C)nc(Nc2ccc(OC)cc2)nc1Nc1ccc(OC)cc1,-13,2.51
CN(C)c1ccc(NC(=O)[C@@]2(C)CC2(Cl)Cl)cn1,1,-0.19
CC1(c2nccc(NC(=O)c3ccc(Cl)o3)n2)CC1,-15,1.69
O=C(c1cc2c(s1)CCC2)N1CCC[C@@]2(CCS(=O)(=O)C2)C1,-5,0.68
Cc1cc(CNCc2cccnc2C)n(C)n1,-1,0.09
CN(Cc1c[nH]c2nccnc12)[C@H]1CS(=O)(=O)c2ccc(Cl)cc21,2,-0.38
